Measured values as given in article PMC7819943, “Rice protein-binding microarrays: a tool to detect cis-acting elements near promoter regions in rice”.
The list shows a part of the results.

molecular target: T1, OsWOX13 (Oryza sativa, UniProt Q5QMM3 1-267); assay: protein-binding microarray (RPBM); PBS, 2% BSA, 51.3 ng/ul salmon testes DNA, 50 uM zinc acetate, 200 nM TF, 25 C, 1 h; high values mean tight binding; settings: protein: recombinant; tags: N-terminal polyhistidine and DsRed monomer fusion (pET32a); label: CyDye5-dUTP incorporated in the synthesized complementary strand; 3' TTTTT single-stranded linker to array surface; dsDNA, one strand shown
T1 sequence: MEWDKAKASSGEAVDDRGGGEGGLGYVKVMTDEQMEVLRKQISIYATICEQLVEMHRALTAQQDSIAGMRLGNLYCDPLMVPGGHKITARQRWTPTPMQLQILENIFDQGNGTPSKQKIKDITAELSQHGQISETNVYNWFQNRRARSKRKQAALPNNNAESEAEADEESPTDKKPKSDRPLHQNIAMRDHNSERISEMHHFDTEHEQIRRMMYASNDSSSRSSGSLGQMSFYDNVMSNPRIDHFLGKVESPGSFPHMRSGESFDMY
How it was run: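 An Axon 4000B scanner gave the binding signal as per-feature fluorescence intensity in arbitrary units. This followed washing of a custom Agilent array that had been incubated for 1 h at 25 °C with 200 nM protein in PBS, 2% BSA, salmon testes DNA and 50 µM zinc acetate. The proteins were transcription factors fused at the N-terminus to polyhistidine and DsRed, expressed in E. coli BL21-CodonPlus and purified on Ni–NTA.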

Row | Sequence | binding signal
1 | GAGTAATTTTCTACTGGTTTTAATAGTTGAAATAGCTGTTCGGAGTCACCTAGTGCAG | 3780 fluorescence intensity (a.u.)
2 | TGATGATTAGATAAGTTCATCGAATAAGATAAATAGTCAACGGAGTCACCTAGTGCAG | 14700 fluorescence intensity (a.u.)
3 | ATAAATTAGGCGATTAGCTCTCCAATCCGGGCACAGAACCCGGAGTCACCTAGTGCAG | 16300 fluorescence intensity (a.u.)
4 | GGAAGCCAATCAAAGCCAGCTAGGAAGTAGGACCTCTGCCCGGAGTCACCTAGTGCAG | 6050 fluorescence intensity (a.u.)
5 | TCTTTATTTTAACAGGGCAATGACGGAAAACGTGACGGCGCGGAGTCACCTAGTGCAG | 3730 fluorescence intensity (a.u.)
6 | AGTTTAATATGTTAATGAAGAATCTATGCACAAGGCAGCACGGAGTCACCTAGTGCAG | 4380 fluorescence intensity (a.u.)
7 | GCATGGACTAATATTAATTTCCTTCATTGGCATGAATGAACGGAGTCACCTAGTGCAG | 3710 fluorescence intensity (a.u.)
8 | CATGATTGAAACATTACTTGATGGCTTCTGGTCCTACCCACGGAGTCACCTAGTGCAG | 53900 fluorescence intensity (a.u.)
9 | TGATACTATCAATCACTATAGCTTATCCATAGTACTATATCGGAGTCACCTAGTGCAG | 8320 fluorescence intensity (a.u.)
10 | GGATCTCTTGACAGGTTCATCTTCTCTCCTGACAAGAGTCCGGAGTCACCTAGTGCAG | 3430 fluorescence intensity (a.u.)
11 | ATAAATTTAATTTTCTAATTCATACTAGTAATTAAAACTTCGGAGTCACCTAGTGCAG | 11800 fluorescence intensity (a.u.)
12 | TAAATCTAATTGTTATAGAGCCTTTATTTTCACACAAGCTCGGAGTCACCTAGTGCAG | 6340 fluorescence intensity (a.u.)
13 | TTGATTTCAAATTTCACAATATGAAACGAACTCCTATGGACGGAGTCACCTAGTGCAG | 5020 fluorescence intensity (a.u.)
14 | GGACCATCATCAGCCATCTTGATTTGTTGCCACCAGCCTGCGGAGTCACCTAGTGCAG | 7010 fluorescence intensity (a.u.)
15 | ATCAAAATTTAAAATTTAAAATTTAGCATTGCTTTATATGCGGAGTCACCTAGTGCAG | 13500 fluorescence intensity (a.u.)
16 | AACAAATTGGCTAGCTAGAATTGAAGCAGGTACTCCTAATCGGAGTCACCTAGTGCAG | 13300 fluorescence intensity (a.u.)
17 | ATGCAAATTATTACGCTCTTTATCTATTTCTAATACATTCCGGAGTCACCTAGTGCAG | 4500 fluorescence intensity (a.u.)
18 | TCCTGATTATATATATTGATGGATGGCAAGAGAAGAGACGCGGAGTCACCTAGTGCAG | 48400 fluorescence intensity (a.u.)
19 | AAATTTAATTAATTATGTGTTAAACACTGCTTCGTTTTATCGGAGTCACCTAGTGCAG | 27300 fluorescence intensity (a.u.)
20 | ACATTATCCAATTAAATCCATGGCTTGATACCTTCTTCTGCGGAGTCACCTAGTGCAG | 3610 fluorescence intensity (a.u.)
21 | GGATGATTTTCCGTGTTTTAATTAAGAAAACCTGATACTACGGAGTCACCTAGTGCAG | 14200 fluorescence intensity (a.u.)

Row | Sequence | binding signal
22 | AGAATTAATTGATGGTAATTAAGTCGGCAGCATGTATGACCGGAGTCACCTAGTGCAG | 42800 fluorescence intensity (a.u.)
23 | ATTCATATTCCACTAATTGAATCACGATTTTAAAATTTCCCGGAGTCACCTAGTGCAG | 11600 fluorescence intensity (a.u.)
24 | TTAATTACCTATCTTAGAGTGCCATCTAGTTCCTCCTACCCGGAGTCACCTAGTGCAG | 6630 fluorescence intensity (a.u.)
25 | TTAAATTTAATGTTAGTTCAAACATCACTATACATACTTACGGAGTCACCTAGTGCAG | 4830 fluorescence intensity (a.u.)
26 | GCCTGCAATTTGCCGGTGTCAATTTAGCTGTCACTCTCCACGGAGTCACCTAGTGCAG | 4060 fluorescence intensity (a.u.)
27 | GTGGAGTGATATATTACATATTAATTTATCTTCCTCTAATCGGAGTCACCTAGTGCAG | 7040 fluorescence intensity (a.u.)
28 | ACACAATCACATTCACATTTGGCATCCTCAAATTCCACCCCGGAGTCACCTAGTGCAG | 5670 fluorescence intensity (a.u.)
29 | CTGCAATTGACCGATTGCCATTTCACAACGGTAGCGACAACGGAGTCACCTAGTGCAG | 11500 fluorescence intensity (a.u.)
30 | TATCAATTAGCTGAATGTTTCAGGTTTCAGCTGCAGAGGCCGGAGTCACCTAGTGCAG | 28400 fluorescence intensity (a.u.)
31 | GTATAATTGGCATGTGGGCCTACGATTTCTATTATTTCCACGGAGTCACCTAGTGCAG | 31400 fluorescence intensity (a.u.)
32 | ATGATTCAAATTTACTTTGTAAATCTACTATTGTACTACCCGGAGTCACCTAGTGCAG | 5710 fluorescence intensity (a.u.)
33 | TTGATTTAGGAAAGATGATTAGGATTTAATTAATGAGAGTCGGAGTCACCTAGTGCAG | 25900 fluorescence intensity (a.u.)
34 | CATAATTAAAATACTTAAAATATGTGCTCGTAATTATTTACGGAGTCACCTAGTGCAG | 6000 fluorescence intensity (a.u.)
35 | TTGTATGAAATATGTAATTTGTATATTTGCAAATGACATTCGGAGTCACCTAGTGCAG | 4850 fluorescence intensity (a.u.)
36 | CAGATGTAATCAAAACTAGGATGATGAACCAGGGCAAGGACGGAGTCACCTAGTGCAG | 4430 fluorescence intensity (a.u.)
37 | ATAATAATTTTAAAATAAGATGATGAGTCAAACGTTGTATCGGAGTCACCTAGTGCAG | 10600 fluorescence intensity (a.u.)
38 | AAAATTGTCACACAATCTATAATTAGTGTGATAGTATTATCGGAGTCACCTAGTGCAG | 3810 fluorescence intensity (a.u.)
39 | CACTAGTACTCCACTACACATGATTGAGAGTTTTCTGAACCGGAGTCACCTAGTGCAG | 6700 fluorescence intensity (a.u.)
40 | TCCATATCAAATTGACATCCAATAAATCGAATTGGAACTTCGGAGTCACCTAGTGCAG | 13800 fluorescence intensity (a.u.)
41 | ATTTAATTTGATTAACATGAATTTAATAATTTATTAACACCGGAGTCACCTAGTGCAG | 45900 fluorescence intensity (a.u.)
42 | GGTAAATTTGGATAAAACAAAGATGCCCATCTTGAGCCGGCGGAGTCACCTAGTGCAG | 7560 fluorescence intensity (a.u.)
